Test results reported in the BET-seq Pho4 binding data (Le et al. 2018).
The list shows a part of the results. Values were computed here from the reads of four pooled replicates and scatter widely.

molecular target: T1, Pho4 (S. cerevisiae) (UniProt P07270); assay: relative binding free energy (BET-seq); higher = weaker binding; conditions: reference: library average
T1 sequence: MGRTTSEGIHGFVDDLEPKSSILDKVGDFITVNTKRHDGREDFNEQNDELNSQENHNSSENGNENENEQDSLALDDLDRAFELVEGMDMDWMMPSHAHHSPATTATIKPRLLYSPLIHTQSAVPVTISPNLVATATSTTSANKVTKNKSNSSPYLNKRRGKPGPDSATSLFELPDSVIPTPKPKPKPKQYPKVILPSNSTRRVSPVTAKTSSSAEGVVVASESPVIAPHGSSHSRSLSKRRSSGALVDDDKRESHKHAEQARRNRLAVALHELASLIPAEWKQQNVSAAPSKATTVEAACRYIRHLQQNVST

Relative binding free energy, -0.17 kcal/mol:
ATTGGCACGTGCTGGG
ATGGGCACGTGGTTGC
TTATGCACGTGGCCTG

Relative binding free energy, -0.12 kcal/mol:
GGATACACGTGGGGGC
TATTGCACGTGGTTGC
GTGAGCACGTGTTTAT
GGGGGCACGTGGTCAA
AAGGACACGTGGGGTA
TGTGGCACGTGCTCTA

Relative binding free energy, 0.06 kcal/mol:
ATTTACACGTGCGTGA
GGGGGCACGTGTAAGG

Relative binding free energy, -0.03 kcal/mol:
TGTTGCACGTGGAGTA
GAAGACACGTGTTGTT
CATGGCACGTGTGAGA
ATGAGCACGTGGAAGT

Relative binding free energy, -0.3 kcal/mol:
TGTAGCACGTGTCTGT

Relative binding free energy, 0.31 kcal/mol:
GTGGTCACGTGATTCT
TGTTTCACGTGACCTG
GAATGCACGTGATAAG
ATCTTCACGTGATTGT
GGATTCACGTGCTAGT

Relative binding free energy, -0.16 kcal/mol:
TATTGCACGTGGAGTA
ATGCGCACGTGGTGTT
AGGGCCACGTGGGCAG
TTGCGCACGTGGAGTG

Relative binding free energy, 0.35 kcal/mol:
CGTTTCACGTGTATAT
ATGTTCACGTGTGAAC

Relative binding free energy, 0.15 kcal/mol:
ACTGTCACGTGTCTGG
GTGTTCACGTGTGCTT
GGGGTCACGTGTTTGT

Relative binding free energy, 0.21 kcal/mol:
TTTACCACGTGAAGGG
GCAATCACGTGGTGGA
CGTGTCACGTGTAGAT
GCGTTCACGTGGGGAG

Relative binding free energy, 0 kcal/mol:
AAGTGCACGTGTACTG
GTTAGCACGTGTCATT
AGTGCCACGTGTTTAG
TTTCCCACGTGTTGTG
GGGTGCACGTGGAGGG
AAGATCACGTGGTTGG

Relative binding free energy, -0.31 kcal/mol:
TAGGGCACGTGGGGTC

Relative binding free energy, 0.44 kcal/mol:
GCTTTCACGTGTGTTA

Relative binding free energy, 0.29 kcal/mol:
AAGGTCACGTGGATTT
TGAATCACGTGTGGAT
TGTTTCACGTGATTGC

Relative binding free energy, 0.27 kcal/mol:
GGAAACACGTGATAGG
GTGCTCACGTGTTGTT
AAATTCACGTGGAGAT

Relative binding free energy, 0.17 kcal/mol:
ACGATCACGTGTTTTT
TCGTGCACGTGAAGGG
AGTGTCACGTGGCTTC
ATTTCCACGTGTGTTA
GGATGCACGTGGAGTT

Relative binding free energy, 0.32 kcal/mol:
CGGTGCACGTGAGATT

Relative binding free energy, 0.28 kcal/mol:
ATGGTCACGTGTGGAA
AGGATCACGTGTGTGA

Relative binding free energy, -0.13 kcal/mol:
TGCGGCACGTGCTTGT
GTTTGCACGTGGGCAT
CATGCCACGTGGGGGC
CGTAGCACGTGGGGAT
ATCTGCACGTGGGTTG

Relative binding free energy, 0.36 kcal/mol:
TTCTTCACGTGGTATC

Relative binding free energy, 0.19 kcal/mol:
GTAGTCACGTGTTATC
GAGATCACGTGTATGG
TTCTTCACGTGGTTGA
TTATTCACGTGCTGGT

Relative binding free energy, -0.02 kcal/mol:
CTTGTCACGTGGTGCT
ATGTGCACGTGTGGTC

Relative binding free energy, 0.01 kcal/mol:
GTTTGCACGTGCTGTG
ATGGACACGTGTGTCA

Relative binding free energy, 0.18 kcal/mol:
AAGTTCACGTGTCGGT
AGTGTCACGTGACATT
GAAAGCACGTGATGGT
TAGCACACGTGAGTTG

Relative binding free energy, 0.38 kcal/mol:
TCAGTCACGTGAGTAG

Relative binding free energy, -0.07 kcal/mol:
CGTGGCACGTGCGTGA
GATAGCACGTGGCGTA
TTTTACACGTGCGCGT
GGTAGCACGTGGGGGA

Relative binding free energy, 0.25 kcal/mol:
GCAATCACGTGGTTAG
TCTGTCACGTGGATTT
TAGATCACGTGTAGTC

Relative binding free energy, 0.22 kcal/mol:
CTGTACACGTGTGTTT
TTTGTCACGTGATGAT
GGCGTCACGTGATGGC
AGTTACACGTGTACTG

Relative binding free energy, -0.09 kcal/mol:
ATGATCACGTGGGGGT
TTGGCCACGTGTTGCG
TTAACCACGTGGTTTG
AAGGGCACGTGTTTCG
GCGGGCACGTGCAAGG
AAGGCCACGTGTAGGG

Relative binding free energy, -0.01 kcal/mol:
TGTTGCACGTGCGGCC
TGTAACACGTGGATTA
TGCTACACGTGTTAGT
TTGCACACGTGTGTAG
GTTAGCACGTGGTTAT

Relative binding free energy, 0.09 kcal/mol:
GAAGTCACGTGGGGAC
GTTTGCACGTGTGCTT
TCGGTCACGTGTTTTG
TTAAACACGTGATTGA
GTTTACACGTGGCGGA
AGCTACACGTGTGTGG
ATTGACACGTGTTGGG

Relative binding free energy, 0.3 kcal/mol:
TGCTTCACGTGTTTTC
AGGTTCACGTGGTCCT

Relative binding free energy, -0.06 kcal/mol:
TGTATCACGTGGCTGA
TGTACCACGTGCGTTT
AGCGTCACGTGGTTAG
GTTGGCACGTGCTCTT
GTGGCCACGTGTGGGA
TTCAGCACGTGTATAT
GTGCGCACGTGGTGGC
ATGTCCACGTGCGGGT

Relative binding free energy, -0.04 kcal/mol:
TCGGTCACGTGGCTTG
AGTTGCACGTGGTGGA

Relative binding free energy, 0.23 kcal/mol:
TGGGACACGTGGAGAA
TATGGCACGTGAAGGA

Relative binding free energy, 0.33 kcal/mol:
TTTTTCACGTGGCTGC
GTAAACACGTGAGAGT
ATGTTCACGTGACTAG

Relative binding free energy, -0.19 kcal/mol:
GTGAGCACGTGGTGTC
GGCGACACGTGGGCGT

Relative binding free energy, -0.05 kcal/mol:
GTTGACACGTGGAGAG
ATTTACACGTGGGATA
GTGACCACGTGGGGGA
ATTAACACGTGCGGGG

Relative binding free energy, 0.24 kcal/mol:
TTATGCACGTGAGGTC
GGTCTCACGTGATTTA
TGATTCACGTGCATGT

Relative binding free energy, 0.08 kcal/mol:
AGTGTCACGTGCTGAG
GGAAGCACGTGACGTG
GCTTGCACGTGTAGGG
GGGTGCACGTGTAGCG
GGTATCACGTGGGAAA

Relative binding free energy, 0.1 kcal/mol:
GTAGGCACGTGTGGCT
AGAGACACGTGTTAAG
GGTATCACGTGCGGTA
CATTGCACGTGTGTAA
GTGGTCACGTGGGATC

Relative binding free energy, 0.11 kcal/mol:
GACGGCACGTGTTGCG
TGGTACACGTGTGTTG
GTGTACACGTGGGGAA
GTATGCACGTGATGGC
ATACTCACGTGGGTGA
CGATACACGTGTTGTT

Relative binding free energy, -0.14 kcal/mol:
TTAAGCACGTGCATTG
GTGGGCACGTGCTTGA
TGTTGCACGTGGTGTC

Relative binding free energy, -0.1 kcal/mol:
ATTGGCACGTGTATGG
AATTGCACGTGGTACG
GGTGCCACGTGTGCGG
GGGAGCACGTGGGTGT
TGAAGCACGTGCTGTA
TCGGGCACGTGGGATC

Relative binding free energy, -0.15 kcal/mol:
TGCTGCACGTGTGTCG
ATAGGCACGTGGGAAA

Relative binding free energy, -0.22 kcal/mol:
GCGAGCACGTGCGGGT

Relative binding free energy, 0.04 kcal/mol:
CAAGGCACGTGTTGTA
AGTTACACGTGGGCGG
TGGAGCACGTGTCTAG
TTGCACACGTGTCGGG
TTGTACACGTGTTTCG

Relative binding free energy, -0.08 kcal/mol:
TAGAACACGTGGGTAG
TGATACACGTGTAGGA
TTATGCACGTGGAGCG
TCTTACACGTGGGGGT
CGGTGCACGTGGTGGG
TAGTGCACGTGTGTAC

Relative binding free energy, -0.21 kcal/mol:
TGAGGCACGTGGCCTT

Relative binding free energy, -0.24 kcal/mol:
GAATGCACGTGGGTCG
TTCAGCACGTGGGGCA

Relative binding free energy, 0.14 kcal/mol:
TAGATCACGTGGGCGG
GTGCACACGTGGTGAA
ACGGACACGTGATGGT
GTGTTCACGTGTACTA
AATTACACGTGGCTGT
TTTCACACGTGTAGAG

Relative binding free energy, 0.13 kcal/mol:
GGATGCACGTGTGGGG
TTCATCACGTGGTGGA
TTGGTCACGTGTAATG
ATTATCACGTGCGCGG
TAGGTCACGTGTTGCT

Relative binding free energy, 0.12 kcal/mol:
GGATACACGTGTTTGC
ATCATCACGTGTGTGT

Relative binding free energy, 0.07 kcal/mol:
TGGATCACGTGCGCGG
ATTAACACGTGGGACG
TTATTCACGTGTTCTA
GATTACACGTGGGTGA
GCAATCACGTGGGTGA

Relative binding free energy, 0.02 kcal/mol:
GGACGCACGTGTTTGA
GGTAGCACGTGTTTGC
GAGTGCACGTGTATTG
ATGTCCACGTGTGGCG
TTATGCACGTGTATGA
CTTGTCACGTGTATGC
AGGTACACGTGGCCGG
TCGGTCACGTGGGTTC

Relative binding free energy, -0.29 kcal/mol:
CAGGGCACGTGGTCGT
CTTGGCACGTGCTGTG

Relative binding free energy, -0.18 kcal/mol:
GTTGCCACGTGGGCGG
TTGAGCACGTGCGGAT
TCTACCACGTGGGGGT
TATAGCACGTGCGGGA

Relative binding free energy, 0.05 kcal/mol:
CGGGACACGTGTGGCG
TTGCTCACGTGCGTGG
TAAATCACGTGGTTTA
TTGGTCACGTGCTTAT
ATAGTCACGTGTATGG

Relative binding free energy, -0.25 kcal/mol:
AGTAACACGTGGGGCT

Relative binding free energy, 0.16 kcal/mol:
TGTTTCACGTGGGCTT
TTCGACACGTGTGGGT
ATCGTCACGTGGAGGG
ATGATCACGTGTGGAG

Relative binding free energy, 0.26 kcal/mol:
GCTTTCACGTGTAAGT
TTGGTCACGTGATAAA

Relative binding free energy, -0.28 kcal/mol:
TTATGCACGTGGTTTC

Relative binding free energy, -0.26 kcal/mol:
AATGGCACGTGGTAGA

Relative binding free energy, -0.23 kcal/mol:
AGGTGCACGTGCCGTT
TCGGCCACGTGGGGTG

Relative binding free energy, 0.42 kcal/mol:
GGATTCACGTGATGGT

Relative binding free energy, 0.2 kcal/mol:
ATTGTCACGTGAGATA
GTTGTCACGTGACGTG
GTCTGCACGTGAGTGT
TGGTCCACGTGAGTTT
CATAACACGTGAGGGT

Relative binding free energy, 0.03 kcal/mol:
GTTACCACGTGTTGTT
CGGGCCACGTGTAGGT
ATAATCACGTGTGAGG

Relative binding free energy, -0.11 kcal/mol:
AGTGTCACGTGCGCGG
